# Measured values from PubChem BioAssay AID1347165 (National Center for Advancing Translational Sciences (NCATS), 2019).
# Screen size: about 220,000 compounds; about 5,700 (2.6%) were called active. The shares of active, inactive and inconclusive entries below differ from those in the screen. The call rests on the fitted dose curve; in most records, active means well fitted inhibition curve with a large enough effect; inconclusive means small, poorly fitted or top-dose-only effect; inactive means no such curve, though single readings can be large or run the other way. Potencies beside an inconclusive call are fits to weak or partial responses and may not hold up.
# Target: Lysine-specific demethylase 5B (Homo sapiens) (UniProt Q9UGL1)
# Sequence of UniProt Q9UGL1 (Q9UGL1 whole entry, looked up): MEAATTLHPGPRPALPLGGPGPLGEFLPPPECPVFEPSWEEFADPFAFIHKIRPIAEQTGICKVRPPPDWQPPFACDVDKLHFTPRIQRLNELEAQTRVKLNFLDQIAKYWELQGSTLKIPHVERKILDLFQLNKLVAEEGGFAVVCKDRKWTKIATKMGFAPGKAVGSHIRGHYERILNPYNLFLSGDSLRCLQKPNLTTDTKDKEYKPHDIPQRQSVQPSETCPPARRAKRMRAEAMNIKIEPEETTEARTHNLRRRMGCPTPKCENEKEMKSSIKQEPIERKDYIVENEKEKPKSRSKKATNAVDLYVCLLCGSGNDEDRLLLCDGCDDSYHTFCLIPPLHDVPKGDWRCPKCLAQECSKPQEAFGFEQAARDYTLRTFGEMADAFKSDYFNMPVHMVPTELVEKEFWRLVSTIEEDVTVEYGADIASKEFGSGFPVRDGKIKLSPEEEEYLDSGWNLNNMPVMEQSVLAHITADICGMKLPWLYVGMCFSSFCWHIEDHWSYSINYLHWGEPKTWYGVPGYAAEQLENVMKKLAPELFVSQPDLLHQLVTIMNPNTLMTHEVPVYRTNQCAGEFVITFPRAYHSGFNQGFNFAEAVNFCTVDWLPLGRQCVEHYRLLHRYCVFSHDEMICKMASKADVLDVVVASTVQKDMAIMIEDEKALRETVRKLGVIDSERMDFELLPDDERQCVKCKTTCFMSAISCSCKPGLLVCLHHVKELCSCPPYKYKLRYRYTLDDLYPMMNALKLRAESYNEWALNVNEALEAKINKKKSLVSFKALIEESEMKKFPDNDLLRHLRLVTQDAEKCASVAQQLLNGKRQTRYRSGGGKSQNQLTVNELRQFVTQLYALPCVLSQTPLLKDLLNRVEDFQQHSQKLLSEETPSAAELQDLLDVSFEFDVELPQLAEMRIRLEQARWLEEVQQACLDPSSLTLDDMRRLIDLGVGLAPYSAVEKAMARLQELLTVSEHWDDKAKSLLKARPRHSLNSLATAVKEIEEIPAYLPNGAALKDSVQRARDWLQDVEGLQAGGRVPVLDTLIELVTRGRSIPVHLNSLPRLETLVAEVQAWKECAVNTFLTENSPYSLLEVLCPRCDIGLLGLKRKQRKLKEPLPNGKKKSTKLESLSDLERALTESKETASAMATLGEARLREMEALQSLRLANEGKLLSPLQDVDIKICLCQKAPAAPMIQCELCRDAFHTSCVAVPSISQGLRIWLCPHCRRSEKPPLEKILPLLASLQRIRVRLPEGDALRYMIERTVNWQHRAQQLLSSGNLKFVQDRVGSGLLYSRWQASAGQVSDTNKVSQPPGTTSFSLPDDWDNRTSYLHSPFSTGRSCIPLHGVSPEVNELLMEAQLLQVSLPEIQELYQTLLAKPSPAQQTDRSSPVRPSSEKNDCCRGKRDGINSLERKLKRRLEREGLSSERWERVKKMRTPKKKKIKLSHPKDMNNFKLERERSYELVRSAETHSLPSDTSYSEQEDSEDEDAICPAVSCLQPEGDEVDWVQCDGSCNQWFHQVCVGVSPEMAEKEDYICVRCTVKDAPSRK
# Test: Primary screen for KDM5B Histone Demethylases FDH-coupled qHTS; further: nearly all actives have a fitted effect of over 70% in size; on activity change, negative = inhibition: 0% is about no effect
# Details: FDH-coupled NADH fluorescence (FDH is formaldehyde dehydrogenase); activity change, negative = inhibition: at 57.7 µM (top of the series) unless noted
# Outline: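 Coupled FDH/NAD⁺ fluorescence readout. KDM5BΔAP 200 nM final; compound titration, 10 min RT preincubation; substrate mix 12.5 µM H3K4me3, 25 µM 2-OG, 50 µM Fe(II), 100 µM ascorbate, 0.25 mM NAD⁺, 0.25 U/mL FDH; ΔRFU over 30 min.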
# Potency means the concentration at half of the fitted maximal effect; tags describe the fitted curve by direction and shape.
Compound,Potency,"activity change, negative = inhibition"
Cc1cc(C)c(S(=O)(=O)N2CCN(c3ccc(N4CCCCCC4)nn3)CC2)c(C)c1,"inconclusive: 15.8 µM [inhibitor, partial curve, poor fit]",
CN(Cc1ccccc1)C(=O)COc1ccc2c(C(F)(F)F)cc(=O)oc2c1,"inconclusive: 1.78 µM [inhibitor, partial curve, poor fit]",
COc1cc2c(cc1NS(C)(=O)=O)C(c1cccc3c1OCO3)CC(=O)N2 (stereo unspecified),inactive,
COCC1CN(C(C)=O)CC12CCN(Cc1ccc(Cl)cc1)CC2 (stereo unspecified),"inconclusive: 35.5 µM [inhibitor, partial curve, poor fit]",
O=C(Cn1nc2c(cc1=O)CCCC2)N1CCc2c([nH]c3ccccc23)C1,"inconclusive: 20 µM [inhibitor, partial curve]",
COC(=O)C(C)N1C(=O)S/C(=C/c2ccccc2)C1=O (stereo unspecified),inactive,
COc1ccc(Cc2nc3c4c(C)c(C)n(CC(C)C)c4ncn3n2)cc1OC,"inconclusive: 25.1 µM [inhibitor, partial curve, poor fit]",
Cc1cccc(OCC(=O)Nc2ccc(Cl)c(-c3nc4ccccc4[nH]3)c2)c1,"inconclusive: 39.8 µM [inhibitor, single point]",
O=C1CC(/C=C/c2ccccc2)Cc2nc(N3CCCCC3)ncc21 (stereo unspecified),inactive,
COC(=O)c1c(C)cccc1NC(=O)c1nn(C)c(=O)c2ccccc12,inactive,
COCCCNC(=O)c1cc2c(=O)[nH]c(-c3ccccc3)cn2n1,active: 25.1 µM,
CN1CCc2nc3sc(C(=O)Nc4cccc(C#N)c4)c(N)c3cc2C1,"inconclusive: 31.6 µM [inhibitor, single point]",
COc1cccc(NC(=O)Cn2nc(N3CCN(c4cccc(Cl)c4)CC3)ccc2=O)c1,"inconclusive: 28.2 µM [inhibitor, single point]",
COc1ccc(-c2cnc3n[nH]c(-c4ccccc4)c3n2)cc1,"inconclusive: 31.6 µM [inhibitor, partial curve, poor fit]",
C=CCc1c(C)c(C#N)c2nc3ccccc3n2c1N1CCCCC1,"inconclusive: 22.4 µM [inhibitor, partial curve, poor fit]",
CCCOc1ccc(NC(=O)COc2ccc(OC)cc2)c2cccnc12,inactive,
COc1c(C)cccc1C(=O)Nc1cccc2ncccc12,"inconclusive: 39.8 µM [inhibitor, single point]",
COc1cc(OC)c(C2=CCN(C(=O)COc3ccc(Cl)cc3C)CC2)c(OC)c1,"inconclusive: 39.8 µM [inhibitor, single point]",
CCOc1ccc(NC(=O)c2ccc(C)cc2)c2cccnc12,inactive,
COc1cc(C(=O)NCc2coc(-c3cccs3)n2)ccc1OC(F)F,"inconclusive: 39.8 µM [inhibitor, single point]",
C=CCNC(=O)COC(=O)c1cc(-c2ccc(C)o2)nc2ccccc12,"inconclusive: 20 µM [inhibitor, partial curve, poor fit]",
Cc1noc(C)c1-c1cc2cc(C(C)C)oc2c(N2CCN(C)C(=O)C2)n1,"inconclusive: 28.2 µM [inhibitor, single point]",

Compound,Potency,"activity change, negative = inhibition"
COc1ccc2oc(=O)c(C(=O)NCc3ccccc3)cc2c1,"inconclusive: 10 µM [inhibitor, partial curve, poor fit]",
CCCNC(=O)CCNC(=O)NCc1nc2c(cnn2-c2ccccc2)c(=O)[nH]1,inactive,
COc1ccccc1CN1Cc2cc(NC(=O)c3ccc4c(c3)OCO4)ccc2OC(C)C1=O (stereo unspecified),"inconclusive: 31.6 µM [inhibitor, partial curve, poor fit]",
COc1cccc(C(=O)Nc2c(C(=O)c3ccc(F)cc3)oc3ccccc23)c1,,inconclusive: -31.8% [inhibitor]
COc1ccc(C(=O)Nc2ccc3c(c2)CN(Cc2cc(F)cc(F)c2)C(=O)C(C)O3)cc1 (stereo unspecified),"inconclusive: 31.6 µM [inhibitor, single point]",
Cc1oc(-c2ccc(Cl)cc2)nc1CSCC(=O)NCc1ccccc1Cl,"inconclusive: 31.6 µM [inhibitor, partial curve, poor fit]",
CC(CNC(=O)Cn1c(-c2cccs2)cc2ccccc21)c1ccccc1 (stereo unspecified),"inconclusive: 31.6 µM [inhibitor, partial curve, poor fit]",
COc1cccc(OC)c1C(=O)NCCc1csc(-c2ccccn2)n1,"inconclusive: 31.6 µM [inhibitor, single point]",
CNC(=O)[C@@H](c1ccccc1)N1CCC[C@H]1C(=O)N1CCOCC1,"inconclusive: 56.2 µM [inhibitor, partial curve, poor fit]",
CC(C)Cc1nc(N2CCN(CC(=O)N3CCOCC3)CC2)c(C#N)c2c1CCC2,inactive,
Cc1ccc2c(CC(=O)N(Cc3ccc(Cl)cc3)Cc3ccco3)coc2c1,"inconclusive: 2 µM [inhibitor, partial curve, poor fit]",
Cn1c(=O)c2c(n3ncnc13)NC(=O)CC2c1cccc(F)c1 (stereo unspecified),inactive,
COc1ccc(NC(=O)c2oc3c(c2C)-c2nn(Cc4ccccc4Cl)cc2CC3)cc1OC,"inconclusive: 31.6 µM [inhibitor, partial curve, poor fit]",
CCNc1ncnc2c1CN(C1CCNCC1)C(=O)CN2C,active: 56.2 µM,
C=Cc1ccc(CSc2nnc(C)n3c2cc2occc23)cc1,"inconclusive: 25.1 µM [inhibitor, partial curve, poor fit]",
CCn1ccnc1CN(C)c1nccc(-c2ccc(C)nc2C)n1,active: 22.4 µM,
COCC(=O)N[C@H]1C[C@@H](CO)N(Cc2ccccn2)C1,"inconclusive: 10 µM [inhibitor, partial curve, poor fit]",
COc1ccc(C(=O)N[C@@H]2CN(Cc3cccnc3)C[C@H]2CN(C)C)c(OC)c1,"inconclusive: 22.4 µM [inhibitor, single point]",
COc1ccccc1CN1CCC2(CCCN(C3CCOCC3)C2=O)C1 (stereo unspecified),"inconclusive: 14.1 µM [inhibitor, single point]",
N#Cc1ccc(O[C@@H]2COCC[C@H]2NC(=O)CCCn2cccn2)cc1,inactive,
N#Cc1ccc(CN2CCc3nc(C(=O)N4CCOCC4)oc3CC2)cc1,"inconclusive: 39.8 µM [inhibitor, single point]",
CN(C)CCN(C)c1ccc(-c2nc(-c3ccccc3F)no2)cn1,active: 28.2 µM,

Compound,Potency,"activity change, negative = inhibition"
COc1ccc(CNC(=O)c2cc3c(=O)n4cccc(C)c4nc3s2)cc1,"inconclusive: 15.8 µM [inhibitor, partial curve, poor fit]",
Cc1c(C(=O)Nc2ccc(F)c(F)c2)oc2ccc(S(=O)(=O)N(C)C3CCCCC3)cc12,"inconclusive: 11.2 µM [inhibitor, partial curve, poor fit]",
CCOC(=O)c1ccc(NC(=O)C(C)N(c2ccc(OCC)cc2)S(C)(=O)=O)cc1 (stereo unspecified),"inconclusive: 14.1 µM [inhibitor, partial curve, poor fit]",
CCOc1ccc(-c2cn3c(n2)sc2cc(C(=O)NCCCN(CC)CC)ccc23)cc1,"inconclusive: 35.5 µM [inhibitor, single point]",
COc1ccc(NC(=O)N2CCCC3(C2)Nc2cccnc2NC3=NC2CCCC2)c(C)c1 (stereo unspecified),active: 25.1 µM,
CC(SCc1cccc(C#N)c1)C(=O)NC(C)(C)C (stereo unspecified),inactive,
COc1cccc(CNC(=O)c2oc3ccc4c(c3c2C)C(=O)CC(C)(C)O4)c1OC,"inconclusive: 25.1 µM [inhibitor, partial curve, poor fit]",
CCOc1ccc(-c2nn(-c3ccccc3)cc2C2NC(=O)NC(C)=C2C(=O)OC(C)C)cc1C (stereo unspecified),"inconclusive: 25.1 µM [inhibitor, partial curve, poor fit]",
COC(=O)c1cnn(-c2ccc(C(=O)Nc3cc(Cl)ccc3C)cc2)c1N,inactive,
c1coc(-c2noc(CN3CCCC3c3nc(-c4ccncc4)no3)n2)c1 (stereo unspecified),inactive,
CCn1ccc2c(CN3CCC4(CCCN(CCOC)C4=O)C3)cccc21 (stereo unspecified),active: 28.2 µM,
COc1ccccc1NC(=O)c1coc(=O)c(Br)c1,"inconclusive: 25.1 µM [inhibitor, single point]",
COc1ccc2[nH]c3c(c2c1)CCNC31CCN(C(=O)C2CCOCC2)CC1,active: 22.4 µM,
Cc1ccc(-c2ccc3nnc(CNC(=O)c4ccn[nH]4)n3n2)cc1,active: 28.2 µM,
CCCOc1ccc(/C=N/NC(=O)c2ccc3c(c2)OCO3)c(OCCC)c1,"inconclusive: 28.2 µM [inhibitor, single point]",
O=C(Cn1ccn(-c2cccc(Cl)c2)c(=O)c1=O)c1ccc(F)cc1,"inconclusive: 39.8 µM [inhibitor, single point]",
Cc1[nH]n(-c2ccccc2)c(=O)c1C=NCc1ccncc1,"inconclusive: 25.1 µM [inhibitor, partial curve, poor fit]",
CCSc1ncc(CN2CCN(c3nc(C)cnc3C)CC2)cn1,"inconclusive: 25.1 µM [inhibitor, single point]",
OCC1CN(C2CCC2)CC12CCN(Cc1ccc[nH]1)CC2 (stereo unspecified),"inconclusive: 12.6 µM [inhibitor, partial curve]",
COc1ccccc1OCc1cc(C(=O)NC(CO)C(C)C)n[nH]1 (stereo unspecified),inactive,
Cc1ccc(-c2cc(C(=O)O)c3cc(Cl)ccc3n2)cc1,"inconclusive: 1.78 µM [inhibitor, partial curve, poor fit]",
CN1CCN(c2ccc(-c3noc([C@@H]4CCCN4Cc4ccncc4)n3)cn2)CC1,"inconclusive: 35.5 µM [inhibitor, partial curve]",
